Assay results published in the RNAGym collection of RNA variant scans (doi:10.7554/elife.90254).
The source gives no read counts; variants with many changes may rest on few reads.

B1: LINE1-mini (parent)
chain: GGCAGAGCUCAACACAGCGUGGCAAAGUGGCUGUGGCUAGACUGCC

Variants of: B1
Experiment: self-cleavage, relative activity (ratio to wild type); higher = more cleavage; in vitro, sequencing; the parent is a self-cleaving ribozyme

Variant | self-cleavage
C15A G33C C37U | 0.04
C15U G19U A24G C45G | 0.1
A16C G21A C42U C46A | 0.04
C15G C18G C31U C42A | 0
C15U G27U G40A C42A | 0.02
A16C C31A G40U G44A | 0
A16C G35U C45U | 0
A16G G22U G35A | 0.02
C15G C23G U43G G44U | 0.01
C15G C18A G19U C23U | 0.04
C15U G17C A41C | 0.01
C15U G17A G19U A24C | 0.02
A16C G21U G22U G27U A41C G44U | 0.02
C15A G21C G29U U34G A39C | 0.01
C15G A24U G40A | 0
C15G G21C A26U G33C U43C | 0.03
C15A U20G U32G | 0.14
C15U U20G G40U | 0.01
A16C C18G C37G | 0.05
C15G G27U A39G C46A | 0.01
C15A G19U G40C | 0.02
C15A G29U U34C | 0.03
A16G C23U A41U | 0.3
A16C G33C G36U | 0.03

Variant | self-cleavage
A16C U32A A39U | 0.02
C15A U20G G22C C42A | 0.05
C15G U28G G35C | 0.01
C15G A26U U34A C45A | 0.03
C15A U20G C23A G29A | 0.09
A16G C31U A41G | 0.03
A16C G22A C31A | 0.01
C15G G22U A24U G29A U43C | 0.02
C15U C18G A26G C37A C42G | 0.01
C15U A16G G40C | 0.01
C15U C23U G33U | 0.14
C15U A25U C42A | 0.15
C15U G21A C31G U38A | 0.05
A16G G19U G27C | 0.13
C15A G19A C23G | 0.04
A16C U34A C45A | 0
C15A G27U C37A A41U | 0.07
A16C G29U G33C | 0.04
C15A G17U G27A | 0.05
C15A G22C U28A | 0.01
A16C U28C G30U C46A | 0.34
C15A G40U U43G | 0.06
A16G G22U C45U | 0.06
A16C G21C G22U U32G A41U | 0.15

Variant | self-cleavage
A16G G19A G36A U38A A41U | 0.52
C15A G29A C45G | 0.04
C15A G21C A24U A26U C31U C45U | 0.02
A16C A26C U38G G44U | 0.03
A16G U28A U34G C45A | 0.02
A16C A25U U32G G44U | 0.11
A16C G22C C23A A25C C31G | 0.02
A16G C18A G19C | 0.16
C15U C23U U34A G44C | 0.02
C15G G27C G35A | 0.05
A16G U32C C37G | 0.03
C15G U20C C46G | 0.01
A16G G19U A25U C31A A39G | 0.01
C15A G19U C31G | 0.01
C15G G21U G29U U34G U43A | 0
C15G G33A A41C | 0.04
C15A G35U U38A | 0.03
C15U G19U C31A | 0.05
C15U U20C G30A | 0.13
C15A G35A C37G G44C | 0.01
C15G A16C C18U U20G G21A G22C C23U C45U | 0.02
C15U C18U U32C G35C G44A | 0.06
A16C A24C U32C U34A C37A | 0.01
C15U U34G G44A | 0.03

Variant | self-cleavage
A16C G22A C23U G35A | 0.03
C15U A26C U38A | 0.2
C15G G17C A25C G40A | 0
C15G A39C G40A C46A | 0.08
A16C U20G U32C A41C | 0.02
C15A U32C G36U | 0.07
C15A U20G C23U C45U | 0.04
A16C G40A A41G | 0.03
C15U A25C U32C | 0.06
A16C C37A A39U C46U | 0.02
C15A U20G G22A A25C C37A U38G | 0.02
A16G G29C G35C U43A | 0.01
C15U G22A C23G C37A | 0.02
C15G C23A G29C | 0.99
A16C C37A G40U | 0.06
C15G C23G G40C A41C | 0.02
A16G G40C C45G C46A | 0.04
C15U G27C G29U | 2.92
C15G U20A G29A | 0.03
A16C U20C G30A | 0.13
A16C C18U G30A C46A | 0.11
A16C G33A G36C G40U | 0.02
C15U A26G C31A | 0.05
A16G C18U A25C C31U G40A | 0.01

Variant | self-cleavage
A16G G17U U20G G30U | 0.07
A16G G33U U38A | 0.02
A16C U32A G36A G40C C42U | 0.24
A16C U20C G22U G30U G40C | 0.01
A16C C18U G22U G33C G35U U43G | 0
C15A G30A G40U | 0.04
C15U G27C G35U A39G C45G | 0.03
C15G U20G C45U | 0.03
C15G G29U G35A | 0.03
C15U A24U U43G | 0.03
C15U A25U G36A | 0.11
C15G U20C G22U | 0.09
A16C G29U G40A | 0.17
A16G C18G U43C C46A | 0.01
A16C G22U A25U | 0.1
C15U C31G G33A U34G G36A G44A | 0.06
C15G U38A C45U | 0.1
C15U A16G C23A C37U C42U C45U | 0.07
A16C G17U C18U C37U | 0.02
C15U A16G G36C | 0.1
C15U A16G C31G U32C G44U | 0.03
C15G C18G C46U | 0.02
C15A G21A A24G U32C G35C | 0.02
A16C C23U U43A C46A | 0.01

Variant | self-cleavage
A16G A25U U28A U43A | 0.02
A16C G35C C42A | 0
C15G A24U U32A U34C | 0.02
C15G G17A U34G | 0.03
C15U A16C G19U | 0.01
C15A G19A A25U C37U | 0.03
A16G U20G G29U | 0.16
C15U U20G U34C G44C | 0.01
A16G A25U U34A A39G | 0
C15A G44C C46A | 0
C15A G27C G35C | 0.04
C15A G19U U43A C46G | 0.01
A16C G19A A24C G27A U28C U32A | 0.03
C15U A24G U28C | 0.74
A16C G29A G30A C37U G40A | 0.02
A16C U20G A25U | 0.18
C15U C18G C23G | 0.06
C15U G33U A39C | 0.02
C15U U20C A24C G44U C45U | 0.03
A16G A26G G40U C42U U43C | 0.06
A16C G21C A39C | 0.06
C15G C31G C42A G44C | 0.01
A16G G36U C46A | 0.04
C15U C18U C23G A26C | 0.09

Variant | self-cleavage
A16G G19U G35U | 0.05
A16G G17A U28A C46U | 0.02
C15G A39U G44C | 0.01
C15U U20A U28C G33A G40U | 0.3
C15U G17C U32G U43C C46U | 0
A16G G22C A24G U28C G35A G44C | 0.03
C15G G19A U32C | 0.05
A16C C18G A26C | 0.04
A16G U28G G35C | 0.02
C15U G17U A26U C42U | 0
A16C A26G G27A C37A | 0.09
A16G G21A A26C C45U | 0.07
C15U U43C C45A | 0
C15G G22U U38C G40U | 0.01
C15U G19U C37A C46U | 0
A16G A24G U43G | 0
A16C G19A G22U C37G | 0.03
A16G G27U C31A G36U G44A | 0
C15G A16C G35U A41C | 0.02
A16G G21U C31U U32A A41G | 0
C15U G19C A26C | 0.84
A16C A25G G44C C46G | 0.04
C15A G19A C37A | 0.01
